# Source: the RNAGym collection of RNA variant scans (doi:10.7554/elife.90254)
# The source gives no read counts; variants with many changes may rest on few reads.
# B1: LINE1-mini (parent)
# chain: GGCAGAGCUCAACACAGCGUGGCAAAGUGGCUGUGGCUAGACUGCC
# Variants of: B1
# Assay: self-cleavage, relative activity (ratio to wild type); higher = more cleavage; in vitro, sequencing; the parent is a self-cleaving ribozyme
row,Variant,self-cleavage
1,GGCAGAGCUCAGCACAGCGUGGCGAAGUGGCUGUGGCUAGACCGCC [A12G A24G U43C],0.03
2,GGCAGAGCUCAGCACCGCGUGGGAAAGUAGCUGUGGCUUGACUGCC [A12G A16C C23G G29A A39U],0.04
3,GGCAGAGCUCACCACAGCGUUGCAAAGUGGCUGUGGCUGGACUGCC [A12C G21U A39G],0.01
4,GGCAGAGCUCACCACAGCGUGGCAAAGGGGCUGUGGCUAGACUGGC [A12C U28G C45G],0.03
5,GGCAGAGCUCACCACAGCGGGGCAAAGUGGCUGUUGCUAGACUGCC [A12C U20G G35U],0
6,GGCAGAGCUCACCACAGCGUGGCAAAGUGGCUCUGGGUAGACUGCC [A12C G33C C37G],0.01
7,GGCAGAGCUCACCACAGCGGGGCAAAGUAGCUGAGGCUAGACUGCC [A12C U20G G29A U34A],0.02
8,GGCAGAGCUCAGGACAGCGUGCCAUAGUGGCUGUGGCUGGACUGCC [A12G C13G G22C A25U A39G],0.03
9,GGCAGAGCUCAGCACAGCGUGGCAAGGACGCUGUGGCUAGACUGCC [A12G A26G U28A G29C],0.04
10,GGCAGAGCUCACCACAGCCUGGCAAAGUGGAUGUGGCUAGACUGCC [A12C G19C C31A],0.01
11,GGCAGAGCUCACCACAGCGUUACAACGUGGCUGUGUUUAAACUGCC [A12C G21U G22A A26C G36U C37U G40A],0.14
12,GGCAGAGCUCAGCGCAGCGUGGCAAAGUGGCUGUGGCUAGUCUGCC [A12G A14G A41U],0.04
13,GGCAGAGCUCAGCACUGCGUGGCAAAGUGGCUGUGUCCAGACUGCC [A12G A16U G36U U38C],0.01
14,GGCAGAGCUCACCACAGCGAGGCAAAGUGCCUGUGGCUAGACUGCC [A12C U20A G30C],0.01
15,GGCAGAGCUCAGUACAGCGUGGCAAAGUGGAGGUGGCUAGACUGCC [A12G C13U C31A U32G],0.01
16,GGCAGAGCUCAGCACAGCGUGGCAGAGUGGCUGUGGCUAGAAUGCC [A12G A25G C42A],0.07
17,GGCAGAGCUCACCACAGCGUGCCAAAGUGGCUGUGGCUAGCCUGCC [A12C G22C A41C],0.01
18,GGCAGAGCUCACCACAGCGUACCCAAGUGGCUGUGGGUAGACUGCC [A12C G21A G22C A24C C37G],0
19,GGCAGAGCUCAGCACAGCGUGGCAACGUGGCUGUGGUUAGACUUCC [A12G A26C C37U G44U],0.03

row,Variant,self-cleavage
1,GGCAGAGCUCACCACAGCGUGGCAAAGUUGCUGUGGCGAGAGUGCC [A12C G29U U38G C42G],0
2,GGCAGAGCUCACCACAGCGUGACAAAGUGGCUGUGGCUAGCCUGGC [A12C G22A A41C C45G],0
3,GGCAGAGCUCACCACAGCGUGACAAAAUGCCGGUGGCUAGACUGCC [A12C G22A G27A G30C U32G],0
4,GGCAGAGCUCAGCCUAGCGCGGCAAAGUGGCUGUGGCUAGACUGCC [A12G A14C C15U U20C],0.01
5,GGCAGAGCUCACCACAGCGGGGCAAAGUGGCUGUGGCUACACUGCC [A12C U20G G40C],0.02
6,GGCAGAGCUCAGAACAGCGUGGCAAAGGGGCUGUGGCUAGACAGCC [A12G C13A U28G U43A],0
7,GGCAGAGCUCAGCCCAGCGUGUCAAAGUGGCUGAGGCUAGACUGCC [A12G A14C G22U U34A],0.03
8,GGCAGAGCUCAGGACAGGGUGGCAAAGUGGCUGUGGCUAGACCGCC [A12G C13G C18G U43C],0.01
9,GGCAGAGCUCACCACAGCGUGGCAAAGAGGCUGUGGAUAGACUGCC [A12C U28A C37A],0.02
10,GGCAGAGCUCACCACAGCUUGGUAAAGCGGCUGUGGCUAGACUGCC [A12C G19U C23U U28C],0.22
11,GGCAGAGCUCACCACAGCGUGGCAAAGUGGCGGUGGCUAUAUUGUC [A12C U32G G40U C42U C45U],0
12,GGCAGAGCUCACCACAGCCUGGCAAAGUGGGUGCGGCUAGAUUGCC [A12C G19C C31G U34C C42U],0.05
13,GGCAGAGCUCAGAAGAGCGCGGCAAAGUGGCUGUGGCUAGACCGCC [A12G C13A C15G U20C U43C],0.03
14,GGCAGAGCUCACCACAGCGUGGCAAACUGGCUCUGGCUAGACUGCC [A12C G27C G33C],0.02
15,GGCAGAGCUCAGCGCAGCGUGGCAAAGUGGUUGGGGCUAGAAGGCC [A12G A14G C31U U34G C42A U43G],0.02
16,GGCAGAGCUCACCACAGCGCGGCACAGUGGCUGUGACUAGACUGCC [A12C U20C A25C G36A],0.02
17,GGCAGAGCUCACCACAGCGUGGCAAAGUGCCUGUUGCUAGACUGCA [A12C G30C G35U C46A],0
18,GGCAGAGCUCAGUACAGCGUGGCAAUGUGGCUGUGGCUAGACUGCG [A12G C13U A26U C46G],0.01
19,GGCAGAGCUCAGCACAGCGUGGCAAAGUGGCUGUGGCUAGCCUGCU [A12G A41C C46U],0.01

row,Variant,self-cleavage
1,GGCAGAGCUCACCACAGCGUGACAAUGUGGUUGUGGCUAGACUGCC [A12C G22A A26U C31U],0
2,GGCAGAGCUCACCACAGCGUGGCAAAGUGGCUGUGACCAUACUGCC [A12C G36A U38C G40U],0.11
3,GGCAGAGCUCACCACAGCGUGGCAAAGCGGCUGGGGUUAAACUGCC [A12C U28C U34G C37U G40A],0.02
4,GGCAGAGCUCAGCGCAGCGUGGCAAGGUGGCUGUGGCUAGACUGCC [A12G A14G A26G],0.01
5,GGCAGAGCUCACCACAGCGUGGCAAAGUCGCCGUGGCUAGACUGCC [A12C G29C U32C],0.02
6,GGCAGAGCUCAGAACAGCGUGGAAAAGUGGCUGUGGCUAGACUGCC [A12G C13A C23A],0.38
7,GGCAGAGCUCACCACAGCUUUGCAAAAUGGCAGUGGCUGGACUGCC [A12C G19U G21U G27A U32A A39G],0.01
8,GGCAGAGCUCAGCACCGCGUGGCAAAGUGGCUGGGGCUAGACUGGC [A12G A16C U34G C45G],0.12
9,GGCAGAGCUCACCACAGCGGGGCAAAGUGGCUGAGUCUAGCCUGCC [A12C U20G U34A G36U A41C],0.01
10,GGCAGAGCUCACCACAGCGUGGCAAAGAGGCUUUGGCUACACUGCC [A12C U28A G33U G40C],0.03
11,GGCAGAGCUCAGCUCAGCGUGGAAUAGUGGCUGUGGCUAGACUGCC [A12G A14U C23A A25U],0.01
12,GGCAGAGCUCACCACAGCCCGGCAAAGUGGCUGUGGCUAGACUGCC [A12C G19C U20C],0
13,GGCAGAGCUCACCACAGCCUGGCAAAGUGGCUGUGGCUAGGCUGCU [A12C G19C A41G C46U],0.03
14,GGCAGAGCUCAGCACAGCGUGGCUAACUGGCUGUGCCUAGACUGCA [A12G A24U G27C G36C C46A],0
15,GGCAGAGCUCACCACAGCGUGGCAAAGUAGCUGUGGCUAGAUUGCC [A12C G29A C42U],0.01
16,GGCAGAGCUCACCACAGCGUCGCAAAGUGGCUGUGGCUAGACUGGC [A12C G21C C45G],0
17,GGCAGAGCUCACCACAGCGUGUCAAAGUGGCUGUCGCUAGACUGAC [A12C G22U G35C C45A],0.01
18,GGCAGAGCUCAGCACAGCGUGGCAAGGGGGCUGUGGCUAGACUGCC [A12G A26G U28G],0.01
